# From PubChem BioAssay AID686979 (National Center for Advancing Translational Sciences (NCATS), 2013)
# About 50,000 (12%) of roughly 420,000 compounds were called active. This list was built around the results that the source calls inconclusive (neither active nor inactive); the mix of calls is not that of the screen. Calls come from the whole dose curve; as a rule, active = well fitted inhibition curve with a large enough effect; inconclusive = small, poorly fitted or top-dose-only effect; inactive = flat fitted curve, though single readings scatter. No potency is given beside an inconclusive call; the fits are too rough.
# Test: qHTS for Inhibitors of human tyrosyl-DNA phosphodiesterase 1 (TDP1): qHTS in cells in presence of CPT; note: nearly all actives have a fitted effect of over 55% in size
# Settings: chicken DT40 Tdp1-/-;hTDP1 cells + 20 nM CPT, ATP luminescence, 48 h; activity change, negative = growth inhibition: at 46.2 µM (top of the series) unless noted
# Summary of the method: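 Cell growth measured by CellTiter-Glo luminescence after a minimum 48 h, 37 C compound exposure with 20 nM CPT in Tdp1-knockout DT40 cells stably expressing hTDP1, seeded 400/well; qHTS titration format.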
# % is set by controls: 0 for no effect and ±100 for the full control effect; potency is the fitted concentration of half-maximal effect; tags give direction and shape of the fitted curve.
Compound,"activity change, negative = growth inhibition",Potency
C/C(=N/NC(N)=S)c1cc2ccc(O)cc2oc1=O,inactive: 7.1%,
CN(Cc1ccccc1)Cc1nc2c(c(=O)n(C)c(=O)n2C)n1Cc1ccc(Cl)cc1,,"inconclusive [inhibitor, single point]"
CCCCCCOc1ccc(N2C(=O)CC(N3CCN(CCN=CC4=C(O)CC(C)(C)CC4=O)CC3)C2=O)cc1 (stereo not given),inactive: -7.33%,
Cc1cccc(NC(=S)/N=C(\N)Nc2nc(C)c3cc(C)ccc3n2)c1,,active: 20.6 µM
CCc1cc(=O)oc2cc(C)cc(OC(C)C(=O)NC3CCN(Cc4ccccc4)CC3)c12 (stereo not given),,"inconclusive [inhibitor, single point]"
CC(=O)c1ccc(-c2cc([C@H]3[C@H]4C=CC[C@@H](C)[C@@H]4C(=O)N3Cc3ccccc3)ccc2F)cc1,,active: 14.6 µM
OC(c1cccc(F)c1)c1ncc(-c2ccc3ccccc3c2)[nH]1 (stereo not given),,"inconclusive [inhibitor, single point]"
CCn1c(=O)[nH]c2cc(C(=O)N3CCN(c4ccccc4)CC3)ccc2c1=O,,"inconclusive [inhibitor, partial curve]"
O=C(NCCc1ccccc1)C(=O)NCC1OCCN1S(=O)(=O)c1ccc(Cl)cc1 (stereo not given),,"inconclusive [inhibitor, single point]"
CN(Cc1ccc(C(C)(C)C)cc1)C(=O)C1CSC2(C)CCC(=O)N12 (stereo not given),,active: 16.4 µM
Cc1ccc(NC(=S)NNc2ccc([N+](=O)[O-])cc2S(=O)(=O)Nc2ccccc2C(=O)O)cc1C,inconclusive: -36.9% [inhibitor],
CCOC(=O)c1cnn(Cc2ccc(C)cc2)c1N,,"inconclusive [inhibitor, single point]"
COc1cc(-c2coc3c(C(=O)Nc4ccc(C(C)C)cc4)cccc23)ccc1O,,"inconclusive [inhibitor, single point]"
CCNC(=O)c1ccc2c(c1)C1C3CCC(C3)C1C(c1ccccc1)N2 (stereo not given),,"inconclusive [inhibitor, single point]"
O=C(Nc1ccon1)c1nc[nH]c1C(=O)NCc1ccccc1,inactive: -29.3%,
O=c1[nH]nc(SCCS(=O)(=O)c2ccc(F)cc2)n1-c1ccccc1,,active: 29.1 µM
Cc1ccc2nc(C3CCN(S(=O)(=O)c4ccc5ccccc5c4)CC3)[nH]c2c1,,"inconclusive [inhibitor, single point]"
CC1(C)Cc2c(cnn2-c2ccccc2)C(NC(=O)c2ccc[n+]([O-])c2)C1 (stereo not given),inactive: -2.87%,
O=C(Nc1ccc(OCCO)cc1)c1csc([C@H]2C[C@H](O)[C@@H](CO)O2)n1,inactive: -18%,
CN(C)CC/C=C1/c2ccccc2COc2ccc(CC(=O)O)cc21,,inactive
CC(C)C(=O)N1CCN(c2ccccc2NC(=O)COc2ccccc2)CC1,,"inconclusive [inhibitor, single point]"
Cc1nc(SCC(=O)N2CCc3ccccc32)n[nH]1,inactive: 4.82%,
COc1ccccc1-c1nnc2sc(-c3ccc(N(C)C)cc3)nn12,,active: 0.0073 µM

Compound,"activity change, negative = growth inhibition",Potency
O=C(Cn1nnc(-c2ccccc2)n1)NC1CCS(=O)(=O)C1 (stereo not given),inactive: 0.782%,
Cn1c(=O)n(C)c2cc(NC(=O)COc3ccccc3)ccc21,,"inconclusive [inhibitor, single point]"
CC(Oc1ccc(F)cc1)c1nnc(SCC(=O)N(c2ccccc2)C2CCS(=O)(=O)C2)o1 (stereo not given),,"inconclusive [inhibitor, partial curve]"
Cc1ccccc1OCC(O)COc1ccccc1C,,"inconclusive [inhibitor, single point]"
CC(=O)c1c(N2CCN(Cc3ccccc3)CC2)nc(=S)n(-c2ccccc2)c1C,,"inconclusive [inhibitor, single point]"
COCCCN1C(=O)c2[nH]nc(-c3ccccc3O)c2C1c1ccc(OCc2ccccc2)cc1 (stereo not given),,"inconclusive [inhibitor, single point]"
COc1ccc(CNC(=O)C2CCCN(S(=O)(=O)c3ccc(F)cc3)C2)cc1 (stereo not given),,"inconclusive [inhibitor, single point]"
COC(=O)c1sc(N2C(=O)c3oc4ccccc4c(=O)c3C2c2ccc(O)cc2)nc1C (stereo not given),inactive: -19%,
C1=C(N2CCOCC2)/C(=C/c2nc3ccccc3[nH]2)CC1,,"inconclusive [inhibitor, single point]"
COc1ccc(C(CCN2CCOCC2)c2c(OC)cc(OC)c3ccc(=O)oc23)cc1 (stereo not given),,"inconclusive [inhibitor, single point]"
COc1cc(NC(=O)CCS(=O)(=O)c2nc(-c3ccc4c(c3)OCO4)cc(C(F)(F)F)n2)cc(OC)c1OC,,"inconclusive [inhibitor, single point]"
CCC/C=C(\CCC)C(NC(=O)OCC(C)C)c1ccc(C(=O)OC)cc1 (stereo not given),,active: 23.1 µM
CCc1nc(SCC(=O)N2CCCCCC2)c2c(=O)n(C)c(=O)n(C)c2n1,,"inconclusive [inhibitor, single point]"
O=C(Nc1c(Cl)cc([N+](=O)[O-])cc1Cl)c1cc(Cl)ccc1O,,active: 2.51 µM
Cc1nn2c(CN(C(=O)CN3CCOCC3)c3ccccc3)nnc2c2ccccc12,inactive: 25.5%,
O=C(NCCN1CCN(c2ccccc2)CC1)c1cccc(Br)c1,,"inconclusive [inhibitor, single point]"
c1ccc2c(c1)ccc1nnnn12,inactive: 17.1%,
COc1ccc(CCNC(=O)c2oc(=O)c3ccccc3c2-c2ccccc2)cc1OC,,"inconclusive [inhibitor, single point]"
CC1CCN(C(=O)CCc2nc3cc(S(=O)(=O)N(C)C)ccc3n2C)CC1,,"inconclusive [inhibitor, single point]"
Cc1ccc(NC(=O)Cn2c(=O)n(CCCCC(=O)NCCc3ccc(Cl)cc3)c(=O)c3ccccc32)cc1,,"inconclusive [inhibitor, partial curve]"
O=C(CSC1=NCCS1)Nc1ccnc2ccccc12,,active: 6.51 µM
O=C(O)/C=C\c1cccc(-n2nnnc2SCc2ccccc2F)c1,inactive: 2.2%,
